Reference: PubChem BioAssay (Tox21)
“And” between values parts separate entries of the source, which are not always exact repeats. Equal values may be shown once. Inconclusive means that the source gave no clear call. Such entries were picked first, then a sample of the others. Potencies of inconclusive entries are doubtful fits and often do not repeat. Some structures have more than one record in an assay (separate samples or runs), and their calls can disagree. The source made the active and inactive calls. Unless noted, the call rests on the fitted dose curve.

Tests used:
[1] = molecular target: Nuclear receptor subfamily 1 group I member 3 (Homo sapiens) (UniProt Q14994); experiment: qHTS assay to identify small molecule agonists of the constitutive androstane receptor (CAR) signaling pathway (AID 1224839; active means well fitted curve in the direction sought with a large enough effect in the repeat runs; inconclusive means weak or mixed curves; inactive means no such curve, though single readings can be large; an effect the other way counts as inactive or inconclusive; further: nearly all actives have a fitted effect of over 15% in size;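 on activation: HepG2 cells stably carrying human CAR and a CYP2B6 luciferase reporter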)
Chain of UniProt Q14994 (Q14994 whole entry, looked up): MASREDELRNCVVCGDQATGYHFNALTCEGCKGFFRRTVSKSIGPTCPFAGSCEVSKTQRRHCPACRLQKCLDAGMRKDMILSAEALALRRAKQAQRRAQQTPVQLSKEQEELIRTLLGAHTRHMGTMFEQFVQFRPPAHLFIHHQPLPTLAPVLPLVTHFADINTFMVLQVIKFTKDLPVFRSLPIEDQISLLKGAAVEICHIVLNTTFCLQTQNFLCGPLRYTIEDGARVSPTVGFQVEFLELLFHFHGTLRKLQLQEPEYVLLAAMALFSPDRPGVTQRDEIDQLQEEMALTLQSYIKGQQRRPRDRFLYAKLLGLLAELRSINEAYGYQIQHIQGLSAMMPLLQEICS
How it was run: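 Stable hCAR/CYP2B6-2.2kb HepG2 line in DMEM with 10% FBS; compounds (15 concentrations) and 0.75 uM PK11195 final, 24 h at 37 C/5% CO2, then ONE-Glo luminescence after 30 min.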

[2] = qHTS assay to identify small molecule antagonists of the estrogen related receptor signaling pathway with the pleiotropic PPARgamma coactivator (PGC) from Tox21 10K library - cell viability counter screen (AID 1224840; active means well fitted cell-killing curve with a large enough effect in the repeat runs, not every such curve was filed as active; inconclusive means weak or mixed curves, or effect the other way; inactive means no such curve, though single readings can be large or run the other way; further: nearly all actives have a fitted effect of over 40% in size)
How it was run: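 PGC/ERR cells were seeded at 2,000 cells/well and left 6 hours at 37 C/5% CO2 before pin-tool addition of compounds in DMSO. After 17.5 hours at 37 C, CellTiter-Fluor was added and fluorescence read 30 minutes later.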

[3] = molecular target: Thyrotropin receptor (Homo sapiens) (UniProt P16473); experiment: qHTS assay to identify small molecule agonists of the thyroid stimulating hormone receptor (TSHR) signaling pathway (AID 1224843); settings: TSHR-HEK293 cells, cAMP HTRF, agonist mode, 30 min; activation: at 92.4 µM (top of the series) unless noted; further: nearly all actives have a fitted effect of over 45% in size
Chain of UniProt P16473 (P16473 whole entry, looked up): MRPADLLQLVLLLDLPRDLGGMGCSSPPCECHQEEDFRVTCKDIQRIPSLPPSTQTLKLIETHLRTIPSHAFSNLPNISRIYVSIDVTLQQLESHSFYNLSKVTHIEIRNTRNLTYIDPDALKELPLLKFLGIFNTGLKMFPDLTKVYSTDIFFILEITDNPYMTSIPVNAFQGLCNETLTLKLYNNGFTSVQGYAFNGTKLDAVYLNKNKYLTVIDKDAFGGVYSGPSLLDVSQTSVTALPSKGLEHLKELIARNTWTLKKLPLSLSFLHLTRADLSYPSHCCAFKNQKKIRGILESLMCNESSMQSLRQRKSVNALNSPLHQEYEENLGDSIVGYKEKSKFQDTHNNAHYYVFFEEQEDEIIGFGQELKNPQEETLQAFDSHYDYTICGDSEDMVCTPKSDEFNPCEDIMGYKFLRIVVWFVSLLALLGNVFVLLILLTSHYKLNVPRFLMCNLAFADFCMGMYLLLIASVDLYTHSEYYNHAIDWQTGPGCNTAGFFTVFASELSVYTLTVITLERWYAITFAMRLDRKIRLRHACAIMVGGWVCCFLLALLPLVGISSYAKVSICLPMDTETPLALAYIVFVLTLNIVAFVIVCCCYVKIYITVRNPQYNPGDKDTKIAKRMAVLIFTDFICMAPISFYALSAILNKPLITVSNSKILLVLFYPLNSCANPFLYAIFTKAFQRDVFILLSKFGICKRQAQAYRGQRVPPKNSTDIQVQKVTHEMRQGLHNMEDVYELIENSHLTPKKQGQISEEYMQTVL
How it was run: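 Cell line HEK293 with TSHR; density 800/well. Exposure 30 min RT. Readout HTRF cAMP (cAMP-d2/anti-cAMP-cryptate), 1 h RT before reading.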

[4] = qHTS assay to identify small molecule agonists of the hypoxia (HIF-1) signaling pathway - cell viability counter screen (AID 1224844); further: nearly all actives have a fitted effect of over 50% in size
How it was run: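 HRE-bla ME-180 cells in medium with 0.5% dialyzed FBS were preincubated 5 hrs at 37C, exposed to compounds for 17 hrs, then viability was read as CellTiter-Glo luminescence after 30 min at room temperature, in the reporter wells.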

[5] = qHTS assay to identify small molecule agonists of H2AX (AID 1224845; active means well fitted activation curve with a large enough effect in the signal ratio in the repeat runs, not every such curve was filed as active; inconclusive means weak or mixed curves; the % refers to the signal ratio); settings: CHO-K1 phospho-H2AX Ser139 HTRF, 3 h; activation (H2AX phosphorylation): at 154 µM (top of the series) unless noted
How it was run: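 Wild-type CHO-K1 cells plated overnight, then exposed 3 hr at 37C to compounds at 15 concentrations (0.76% DMSO). Lysed, then HTRF anti-pH2AX(S139)-cryptate/anti-H2AX-d2 detection after 24 hr at room temperature; emissions 665 and 620 nm.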

[6] = qHTS assay to identify small molecule agonists of the hypoxia (HIF-1) signaling pathway (AID 1224846; active means well fitted activation curve with a large enough effect in the signal ratio in the repeat runs, not every such curve was filed as active; inconclusive means weak or mixed curves; the % refers to the signal ratio); settings: HRE-bla ME-180 cells, beta-lactamase ratio, 17 h; activation: at 76.8 µM (top of the series) unless noted
How it was run: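 HRE-bla ME-180 cells (beta-lactamase reporter under hypoxia response element) were plated at 2,000 cells/well in medium with 0.5% dialyzed FBS, rested 5 hrs, then given compounds in DMSO for 17 hrs at 37C, 5% CO2. Reporter induction was read with CCF4-AM FRET substrate.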

[7] = qHTS assay to identify small molecule antagonists of the estrogen related receptor signaling pathway with the pleiotropic PPARgamma coactivator (PGC) from Tox21 10K library (AID 1224841; call rule not given here; further: actives are mostly falling curves and most rising ones were filed inactive; nearly all actives have a fitted effect of over 50% in size)
How it was run: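 PGC/ERR reporter cells were seeded at 2,000 cells/well and held 6 hours at 37 C/5% CO2 before pin-tool addition of compounds in DMSO. After 18 hours at 37 C, One-Glo was added and luminescence read after 30 minutes at room temperature.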

[8] = qHTS assay to identify small molecule agonists of the estrogen related receptor signaling pathway with the pleiotropic PPARgamma coactivator (PGC) from Tox21 10K library (AID 1224842; active means well fitted curve in the direction sought with a large enough effect in the repeat runs; inconclusive means weak or mixed curves; inactive means no such curve, though single readings can be large; an effect the other way counts as inactive or inconclusive; further: nearly all actives have a fitted effect of over 15% in size)
How it was run: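 PGC/ERR reporter cells (NTP line) were seeded 2,000 per well, rested 6 h at 37 C/5% CO2, then pin-dosed with compounds in DMSO for 18 h at 37 C; luciferase read by One-Glo luminescence after 30 min at room temperature.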

[9] = qHTS assay to identify small molecule agonists of H2AX - cell viability counter screen (AID 1224847); further: nearly all actives have a fitted effect of over 30% in size
How it was run: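 Viability of CHO-K1 (wild type) cells after 3 hr compound exposure was measured by CellTiter-Glo luminescence.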
On the % scale 0 is the no-effect control and ±100 the full control effect; potency means the concentration at half of the fitted maximal effect; tags describe the fitted curve by direction and shape or compound fluorescence and quenching.

CC1(c2ccc(Oc3ccccc3)cc2)OC(=O)N(Nc2ccccc2)C1=O (stereo not given)
Potency [1]: inconclusive: 21.8 µM [activator, partial curve] | Potency [2]: inconclusive: 38.8 µM [cytotoxic, partial curve] | Potency [3]: inconclusive: 54.8 µM [activator, single point] | Potency [4]: active: 22 µM | Potency [5]: inconclusive: 20.2 µM [rising, full curve, poor fit] | Potency [6]: inconclusive: 43.9 µM [falling, partial curve]

Cc1cc(C2CC2)nc(Nc2ccccc2)n1
Potency [1]: active: 54.5 µM | Potency [2]: inconclusive: 27.3 µM [cytotoxic, full curve, poor fit] | Potency [7]: inactive | Potency [8]: inconclusive: 1.54 µM [activator, partial curve] | activation [3]: inconclusive: -29.4% | Potency [5]: inconclusive: 101 µM [activator, partial curve, poor fit] | Potency [9]: inconclusive: 101 µM [cytotoxic, partial curve]

Oc1c(Cl)c(Cl)c(Cl)c(Cl)c1Cl
Potency [1]: inconclusive: 27.2 µM [activator] | Potency [2]: inconclusive: 37.8 µM [cytotoxic, partial curve, poor fit] | Potency [9]: active: 88 µM and inconclusive: 63.4 µM [cytotoxic, single point] and inconclusive: 127 µM [cytotoxic, single point]

C[C@]12CCC(=O)C=C1CC[C@@H]1[C@@H]2CC[C@]2(C)C(=O)CC[C@@H]12
Potency [1]: inactive | Potency [2]: inconclusive: 68.6 µM [cytotoxic] | activation [3]: inconclusive: 26.3% | Potency [4]: inconclusive: 30.9 µM [cytotoxic, partial curve] | Potency [5]: active: 88.3 µM and inconclusive: 113 µM [activator, single point] | activation (H2AX phosphorylation) [5]: inconclusive: 10% [at 70.9 µM] | Potency [9]: inconclusive: 111 µM [cytotoxic] and inconclusive: 113 µM [cytotoxic, single point]

COP(=S)(OC)Oc1ccc([N+](=O)[O-])c(C)c1
Potency [1]: inconclusive: 54.5 µM [activator, partial curve] | Potency [2]: inconclusive: 54.5 µM [cytotoxic] | Potency [7]: inconclusive: 13.7 µM [falling, single point] | Potency [6]: inconclusive: 54.9 µM [falling, partial curve]

CN1C(=O)C(O)N=C(c2ccccc2)c2cc(Cl)ccc21 (stereo not given)
Potency [1]: inconclusive: 56.4 µM [activator, partial curve, poor fit] | Potency [2]: inactive | Potency [8]: inactive | Potency [4]: inconclusive: 50.7 µM [cytotoxic, partial curve] | Potency [6]: inconclusive: 56.9 µM [rising, partial curve, poor fit]

N#Cc1cc([N+](=O)[O-])ccc1N
Potency [1]: inconclusive: 17.2 µM [activator, partial curve] | Potency [2]: inconclusive: 68.6 µM [cytotoxic, single point] | Potency [7]: inconclusive: 0.0024 µM [falling, full curve, poor fit] | Potency [9]: inconclusive: 89.8 µM [cytotoxic, partial curve, poor fit]

Nc1ccc(-c2ccccc2)cc1
Potency [1]: inconclusive: 7.91 µM [activator, partial curve] and active: 30.6 µM | Potency [2]: inconclusive: 17.7 µM [cytotoxic, full curve] | Potency [5]: inconclusive: 22.5 µM [rising, partial curve, poor fit]

O=C(O)C(F)(F)C(F)(F)C(F)(F)C(F)(F)C(F)(F)C(F)(F)C(F)(F)C(F)(F)C(F)(F)C(F)(F)F
Potency [1]: inconclusive: 51.6 µM [activator, partial curve] | Potency [2]: inactive | Potency [7]: inactive | Potency [8]: active: 57.9 µM | Potency [4]: inconclusive: 11.6 µM [cytotoxic, partial curve, poor fit]

Cn1cc[n+](C)c1 (tested in a mixture with another compound)
Potency [1]: inactive

CCN(Cc1ccc(Cl)nc1)/C(=C/[N+](=O)[O-])NC
Potency [1]: inactive

CCC(COC(=O)c1cc(OC)c(OC)c(OC)c1)(c1ccccc1)N(C)C (stereo not given)
Potency [1]: inconclusive: 23.7 µM [activator, partial curve, poor fit] | Potency [2]: inconclusive: 23.7 µM [cytotoxic, partial curve, poor fit] | Potency [5]: inconclusive: 55.2 µM [activator, single point] | Potency [6]: inconclusive: 1.2 µM [falling, full curve] | Potency [9]: inconclusive: 55.2 µM [cytotoxic]

SCc1ccco1
Potency [1]: inconclusive: 48.6 µM [activator, partial curve, poor fit] | Potency [2]: inconclusive: 68.6 µM [cytotoxic]

CSc1nc(NC(C)C)nc(NC(C)C)n1
Potency [1]: inconclusive: 60.8 µM [activator, partial curve] and inconclusive: 38.6 µM [activator, partial curve] | Potency [2]: inactive | Potency [6]: inactive

CCCCCc1cc(O)cc(O)c1
Potency [1]: inconclusive: 68.9 µM [activator, single point] and active: 54.5 µM | Potency [2]: active: 48.6 µM | Potency [9]: inconclusive: 127 µM [cytotoxic, single point] and active: 113 µM

Cc1cccc(N=Nc2ccc(N(C)C)cc2)c1
Potency [1]: active: 2.78 µM and active: 3.06 µM | Potency [2]: inconclusive: 31.2 µM [cytotoxic, partial curve] and inconclusive: 17.2 µM [cytotoxic, partial curve] | Potency [3]: inconclusive: 6.98 µM [inhibitor, full curve] | activation [3]: inconclusive: -32.7% | Potency [6]: inconclusive: 70.3 µM [falling, single point] | Potency [9]: inconclusive: 129 µM [cytotoxic, partial curve] and active: 101 µM

CC(c1ccc(O)cc1)c1ccc(O)cc1
Potency [1]: active: 51.1 µM and active: 30.6 µM | Potency [2]: inconclusive: 57.3 µM [cytotoxic, partial curve, poor fit] | Potency [7]: inconclusive: 72.1 µM [falling, single point] | activation [3]: inconclusive: 37.6% | Potency [5]: active: 56.6 µM | Potency [9]: inconclusive: 127 µM [cytotoxic, single point]

OC(c1ccc(Cl)cc1)(c1cncnc1)c1ccccc1Cl (stereo not given)
Potency [1]: inconclusive: 68.6 µM [activator] | Potency [2]: inconclusive: 13.9 µM [cytotoxic, full curve] and inconclusive: 54.5 µM [cytotoxic, partial curve] | Potency [7]: active: 24.8 µM and inactive | Potency [4]: inconclusive: 55.9 µM [cytotoxic, partial curve, poor fit] | Potency [5]: active: 91.4 µM | Potency [6]: inconclusive: 19.8 µM [falling, partial curve] | Potency [9]: active: 115 µM and inconclusive: 127 µM [cytotoxic, single point]

CC(C)N(C(=O)COc1nnc(C(F)(F)F)s1)c1ccc(F)cc1
Potency [1]: inconclusive: 61.1 µM [activator, partial curve] | Potency [2]: inactive | Potency [7]: active: 38.6 µM | Potency [3]: inactive | Potency [4]: inactive | Potency [9]: inactive

O=C(NCc1cccnc1)Nc1ccc([N+](=O)[O-])cc1
Potency [1]: inconclusive: 48.6 µM [activator] | Potency [2]: inconclusive: 77 µM [cytotoxic, single point]

CO/C=C(/C(=O)OC)c1ccccc1Oc1cc(Oc2ccccc2C#N)ncn1
Potency [1]: inconclusive: 12.2 µM [activator, partial curve, poor fit] | Potency [2]: active: 36.7 µM | Potency [3]: inconclusive: 51.8 µM [inhibitor, partial curve] | Potency [4]: inconclusive: 58.6 µM [cytotoxic, partial curve, poor fit] | Potency [5]: inconclusive: 16 µM [activator] | Potency [6]: inconclusive: 58.6 µM | Potency [9]: active: 0.678 µM

CCOC(=O)c1cncn1C(C)c1ccccc1 (stereo not given)
Potency [1]: inconclusive: 29.8 µM [activator, partial curve]

Clc1ccc(CO/N=C(\Cn2ccnc2)c2ccc(Cl)cc2Cl)c(Cl)c1
Potency [1]: inconclusive: 29.8 µM [activator, single point] | Potency [2]: inconclusive: 33.5 µM [cytotoxic, partial curve, poor fit] | activation [3]: inconclusive: -6.44% [at 42.5 µM] | Potency [4]: inconclusive: 26.8 µM [cytotoxic, single point] | Potency [5]: inconclusive: 19.6 µM [rising, partial curve] | Potency [6]: inconclusive: 21.3 µM [falling, partial curve]

CCCN(CCOc1c(Cl)cc(Cl)cc1Cl)C(=O)n1ccnc1
Potency [1]: inconclusive: 62.4 µM [activator, partial curve] | Potency [2]: inconclusive: 62.4 µM [cytotoxic, partial curve] and inconclusive: 48.6 µM [cytotoxic, partial curve] | Potency [3]: inconclusive: 55.6 µM [activator] | activation [3]: inconclusive: 28.8% | Potency [5]: inconclusive: 130 µM [activator, partial curve, poor fit] | Potency [9]: inconclusive: 130 µM [cytotoxic, single point] and inconclusive: 113 µM [cytotoxic, single point]

Oc1ccc(Cl)c(Cl)c1Cl
Potency [1]: inactive | Potency [2]: inconclusive: 71.1 µM [cytotoxic, single point] | Potency [4]: inconclusive: 63.9 µM [cytotoxic, single point] | Potency [9]: inconclusive: 46.7 µM [cytotoxic, full curve]
